These results are taken from the supplement of paper PMC4604168 (melanoma cell lines).

Test systems include SkMel28; SkMel2; SkMel30; SkMel5; UACC257; UACC62; WM115; WM1716; WM3526; WM1745.
Common to all, as to experiment: cell count relative to DMSO control; melanoma cells; higher = more viable cells
Holding throughout (settings): library dose: standard library concentration; 72 h

The other results are listed elsewhere or left out. Single values are uncertain, as repeats are few or missing.
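Further: cells treated in 1,536-well plates, then fixed and DAPI-stained, with nuclei counted from automated high-throughput microscope images.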

On to `Cc1cn(-c2cc(NC(=O)c3ccc(C)c(Nc4nccc(-c5cccnc5)n4)c3)cc(C(F)(F)F)c2)cn1` [nilotinib] + O=C(Nc1ccccc1)c1cc([N+](=O)[O-])ccc1Cl [GW9662] (first compound 1 µM, partner dose 10 µM), for which the cell count in the test with SkMel28 amounted to 77.1%; in the test on SkMel2, 97.7%; in the test with SkMel30 it was 88.4%; in the test on SkMel5 it was 64.7%; with UACC257 it was 77.4%; with UACC62, 59.7%. Further, the figures for the cell count with WM115, in the test on WM1716 and in the test with WM3526 were 88.1%, 93.1% and 88.4%, respectively.

On to `COc1ccc(C2=N[C@@H](c3ccc(Cl)cc3)[C@@H](c3ccc(Cl)cc3)N2C(=O)N2CCNC(=O)C2)c(OC(C)C)c1` [Nutlin-3] + Oc1cc(-c2nc(-c3ccccc3)[nH]c2-c2ccncc2)ccc1Cl [L779450] (first compound 0.5 µM, partner dose 1 µM), for which the cell count with SkMel28 was determined as 34.5%; in the test on SkMel2, 32.2%; with SkMel30 it was 98.4%; with SkMel5, 65%; in the test with UACC257, 74.7%; with UACC62, 42.6%. The cell count in the test on WM115 was 38.5%; in the test with WM1716, 64.4%; in the test on WM3526 it was 51.1%.

For `Cn1c(=O)n(-c2ccc(C(C)(C)C#N)cc2)c2c3cc(-c4cnc5ccccc5c4)ccc3ncc21` + COc1ccc(-c2ccc3c(N4CCOCC4)nc(N4C[C@@H](C)O[C@@H](C)C4)nc3n2)cc1CO [KU0063794] (first compound 0.02 µM, partner dose 0.1 µM), the cell count in the test with SkMel28 was 59.3%; with SkMel2, 68.4%; in the test on SkMel30, 63.5%; in the test with SkMel5, 69.8%; with UACC257, 94.3%; in the test on UACC62 it was 82.3%. Besides, the cell count with WM115 was found to be 69.9%; in the test with WM1716, 66.5%; with WM3526, 74.2%.

Regarding `Cc1cc(Nc2cc(N3CCN(C)CC3)nc(/C=C/c3ccccc3)n2)n[nH]1` + COc1ccc(-c2ccc3c(N4CCOCC4)nc(N4C[C@@H](C)O[C@@H](C)C4)nc3n2)cc1CO [KU0063794] (first compound 0.2 µM, partner dose 0.1 µM), the cell count in the test on SkMel28 amounted to 51.9%; in the test with SkMel2, 68.9%; in the test with SkMel30, 61.2%; in the test on SkMel5, 51.5%; with UACC257, 87.1%; in the test on UACC62, 72.7%. Moreover, the cell count in the test on WM115 is 60.5%; with WM1716, 75%; in the test on WM3526, 60.3%.

In the case of `COc1ccc(C2=N[C@@H](c3ccc(Cl)cc3)[C@@H](c3ccc(Cl)cc3)N2C(=O)N2CCNC(=O)C2)c(OC(C)C)c1` [Nutlin-3] + CCN(CC)CCCCNc1ncc2cc(-c3cc(OC)cc(OC)c3)c(NC(=O)NC(C)(C)C)nc2n1 [PD173074] (first compound 0.5 µM, partner dose 0.5 µM), the cell count came to 50.3% in the test with SkMel28; 93.2% in the test with SkMel2; 101% with SkMel30; 55.5% in the test on SkMel5; 79.2% in the test with UACC257; 62.6% in the test with UACC62. Moreover, the results for the cell count in the test on WM115, in the test with WM1716 and in the test with WM3526 were 72.1%, 64.8% and 85.3%, respectively.

Take `Cc1cn(-c2cc(NC(=O)c3ccc(C)c(Nc4nccc(-c5cccnc5)n4)c3)cc(C(F)(F)F)c2)cn1` [nilotinib] + Cn1cc(/C=C2\C(=O)Nc3cccnc32)c2ccccc21 [GW441756] (first compound 1 µM, partner dose 2 µM): the cell count with SkMel28 worked out at 70.3%; in the test with SkMel2, 89.7%; in the test with SkMel30 it was 86.5%; in the test on SkMel5, 43.4%; in the test on UACC257, 86.5%; in the test on UACC62, 56.2%. Moreover, the cell count with WM115 was determined as 71.9%; in the test on WM1716, 105%; with WM3526 it was 64.8%.

Turning to `COc1ccc(C2=N[C@@H](c3ccc(Cl)cc3)[C@@H](c3ccc(Cl)cc3)N2C(=O)N2CCNC(=O)C2)c(OC(C)C)c1` [Nutlin-3] + COc1cc2ncnc(Nc3ccc(Oc4ccccc4)cc3)c2cc1OC [SrcI1] (first compound 0.5 µM, partner dose 10 µM), the cell count with SkMel28 was found to be 47.5%; with SkMel2 it was 92.8%; in the test with SkMel30 it was 114%; with SkMel5, 53%; in the test on UACC257, 79.9%; in the test on UACC62, 46.9%. The cell count was found to be 46.7% in the test on WM115, 63.3% in the test with WM1716 and 48.8% in the test with WM3526.

Turning to `Cc1cc(Nc2cc(N3CCN(C)CC3)nc(/C=C/c3ccccc3)n2)n[nH]1` + CN(NC(=O)CC(=O)NN(C)C(=S)c1ccccc1)C(=S)c1ccccc1 [STA4783] (first compound 0.2 µM, partner dose 0.03 µM), the cell count stood at 36.2% in the test on SkMel28; 87.4% in the test on SkMel30; 60.3% in the test with SkMel5; 95.1% with UACC257; 44.8% in the test on UACC62; 16.3% with WM115. Further, the cell count with WM1716 is 82.4%; in the test with WM1745 it was 24%; in the test with WM3526 it was 80.5%.

Consider `COc1ccc(C2=N[C@@H](c3ccc(Cl)cc3)[C@@H](c3ccc(Cl)cc3)N2C(=O)N2CCNC(=O)C2)c(OC(C)C)c1` [Nutlin-3] + O=S(=O)(c1ccccc1)N(CC(F)(F)F)c1ccc(C(O)(C(F)(F)F)C(F)(F)F)cc1 [T0901317] (first compound 0.5 µM, partner dose 7 µM), for which the cell count came out at 46.6% in the test with SkMel28; 82.3% with SkMel2; 80.8% in the test on SkMel30; 81.6% with SkMel5; 66.1% with UACC257; 59.7% with UACC62. Further, the cell count came to 77.2% in the test on WM115, 65.2% in the test with WM1716 and 74.7% in the test on WM3526.

As for `Cc1cc(Nc2cc(N3CCN(C)CC3)nc(/C=C/c3ccccc3)n2)n[nH]1` + COC(=O)c1sccc1S(=O)(=O)Nc1ccc(Nc2ccccc2)cc1OC [GSK0660] (first compound 0.2 µM, partner dose 5 µM), the cell count in the test with SkMel28 was 56.6%; in the test with SkMel2, 86.6%; in the test on SkMel30 it was 79%; with SkMel5, 70.7%; with UACC257, 85.9%; in the test on UACC62 it was 81.4%. Also, the cell count with WM115 was 81.2%; in the test with WM1716 it was 89.1%; in the test on WM3526, 91.7%.

`Cc1cn(-c2cc(NC(=O)c3ccc(C)c(Nc4nccc(-c5cccnc5)n4)c3)cc(C(F)(F)F)c2)cn1` [nilotinib] + CCCCCCCCc1ccc(CCC(N)(CO)CO)cc1 [fingolimod] (first compound 1 µM, partner dose 10 µM): the cell count in the test with SkMel2 was found to be 0.296%; with SkMel30 it was 9.8%; in the test with SkMel5 it was 31.8%; with UACC257, 58.4%; in the test on UACC62, 19.6%; with WM115 it was 14.1%. For the same molecule, the cell count in the test with WM1716 stood at 47%; with WM1745 it was 2.27%; with WM3526, 26%.
